Target: T1, NK1R (Homo sapiens, UniProt P25103)
T1 construct: adding SarSP to human mixed leukocyte cultures (MLC) using skin DC as stimulators of allogeneic naïve CD4 T cells; endogenous in cells; host or cells: human skin dendritic cells from skin explants, co-cultured with allogeneic T cells (MLC)
Test: T cell stimulatory function of human skin DCs in MLC
Type: cell-based
Conditions: L733,060 added in MLC cultures

T1 sequence (P25103 whole entry): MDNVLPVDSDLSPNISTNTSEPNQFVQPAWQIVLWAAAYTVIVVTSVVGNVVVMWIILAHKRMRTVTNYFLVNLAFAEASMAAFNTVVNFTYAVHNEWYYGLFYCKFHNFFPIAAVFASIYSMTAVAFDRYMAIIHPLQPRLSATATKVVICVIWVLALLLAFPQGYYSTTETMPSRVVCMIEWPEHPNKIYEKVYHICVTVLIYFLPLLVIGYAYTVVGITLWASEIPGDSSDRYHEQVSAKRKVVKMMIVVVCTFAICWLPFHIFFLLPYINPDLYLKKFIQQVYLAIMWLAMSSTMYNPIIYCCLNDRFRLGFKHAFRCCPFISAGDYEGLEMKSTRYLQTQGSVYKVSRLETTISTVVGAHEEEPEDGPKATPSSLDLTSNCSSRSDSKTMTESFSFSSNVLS

FC(F)(F)c1cc(CO[C@H]2CCCN[C@H]2c2ccccc2)cc(C(F)(F)F)c1 [L733,060]
allogeneic T cell proliferation in response to DC stimulation: significantly reduces allogeneic T cell proliferation

Reference: patent US11744889B2, “Skin microenvironment targeted delivery for promoting immune and other responses” (University of Pittsburgh—Of the Commonwealth System of …, priority 2016, dated 2023)
